US11306102B2, “1,3-di-substituted ketene compound and application thereof” (BEBETTER MED INC., priority 2017, dated 2022)
Some entries share one result that the patent states for a list of compounds.

assay: Pharmacokinetic (PK) experiments after intragastric administration in rats; type: in vivo, SD rats; conditions: oral 20 mg/kg
Method: Male SD rats, weighing 250-300 grams, were fasted overnight before testing. The test compound was dissolved in 30% sulfobutyl-R-cyclodextrin (SBE-β-CD) and administered intragastrically at a dose of 20 mg/kg. Blood was collected 15 minutes, 30 minutes, and 1, 2, 3, 4, […] and 24 hours after the administration. About 0.3 ml of blood was collected at each time point, placed in a centrifuge tube containing K2-EDTA (dipotassium ethylenediamine tetraacetate) and centrifuged (2,000 g, 10 minutes, 4° C.) to take the plasma, which was stored in an ultra-low temperature refrigerator at −80° C. A 50 μL plasma sample was mixed with 5 μl of internal standard (IS) and extracted with ethyl acetate. The residue was redissolved in acetonitrile after drying under vacuum. The sample was filtered and injected into an LC-MS/MS for analysis.

Structure (SMILES) | AUC0-24 h, times that of Elafibranor | Cmax, times that of the reference compound Elafibranor
CSc1ccc2c(C)c(C(=O)/C=C/c3cc(C)c(OC(C)(C)C(=O)O)c(C)c3)oc2c1 [Compound 62, (E)-2-(2,6-dimethyl-4-(3-(3-methyl-6-(methylthio)benzofuran-2-yl)-3-oxoprop-1-en-1-yl)phenoxy)-2-methylpropanoic acid] | 1.2-2.5 times | 1.6-2.5 times
CSc1ccc2c(C)c(C(=O)/C=C/c3cc(Cl)c(OC(C)(C)C(=O)O)c(Cl)c3)oc2c1 [Compound 103, (E)-2-(2,6-dichloro-4-(3-(3-methyl-6-(methylthio)benzofuran-2-yl)-3-oxoprop-1-en-1-yl)phenoxy)-2-methylpropanoic acid] | 10.2-37.3 times | 4.4-6.8 times
CSc1ccc(C(=O)/C=C/c2cc(C)c(OC(C)(C)C(=O)O)c(C)c2)c2occc12 [Compound 5, (E)-2-(2,6-dimethyl-4-(3-(4-(methylthio)benzofuran-7-yl)-3-oxoprop-1-en-1-yl)phenoxy)-2-methylpropanoic acid] | 1.2-2.5 times | 1.6-2.5 times
COc1ccc2cc(C(=O)/C=C/c3cc(C)c(OC(C)(C)C(=O)O)c(C)c3)oc2c1 [Compound 43, (E)-2-(4-(3-(6-methoxybenzofuran-2-yl)-3-oxoprop-1-en-1-yl)-2,6-dimethylphenoxy)-2-methylpropanoic acid] | 1.2-2.5 times | 1.6-2.5 times
Cc1cc(/C=C/C(=O)c2ccc3c(c2)CCS3)cc(C)c1OC(C)(C)C(=O)O [Compound 36, (E)-2-(4-(3-(2,3-dihydrobenzo[b]thiophen-5-yl)-3-oxoprop-1-en-1-yl)-2,6-dimethylphenoxy)-2-methylpropanoic acid] | 1.2-2.5 times | 1.6-2.5 times
CSc1ccc2cc(C(=O)/C=C/c3cc(Cl)c(OC(C)(C)C(=O)O)c(Cl)c3)oc2c1 [Compound 100, (E)-2-(2,6-dichloro-4-(3-(6-(methylthio)benzofuran-2-yl)-3-oxoprop-1-en-1-yl)phenoxy)-2-methylpropanoic acid] | 10.2-37.3 times | 4.4-6.8 times
